Data: patent publication US20200181597A1, “Composition and Application of Arginine-depleting Agents for Cancer, Obesity, Metabolic Disorders, and Related Complications and Comorbidities” (THE HONG KONG POLYTECHNIC UNIVERSITY, priority 2018, published 2020)
Several values for one entry are separate records, joined by “and”; a condition that tells them apart may be missing. Identical values can stand only once.

B1: BHA: BCA-6×His-ABD fusion protein, BCA with V20P and S161C (protein)
chain: MKPISIIGVPMDLGQTRRGPDMGPSAMRYAGVIERLERLHYDIEDLGDIPIGKAERLHEQGDSRLRNLKAVAEANEKLAAAVDQVVQRGRFPLVLGGDHSIAIGTLAGVAKHYERLGVIWYDAHGDVNTAETSPSGNIHGMPLAASLGFGHPALTQIGGYCPKIKPEHVVLIGVRSLDEGEKKFIREKGIKIYTMHEVDRLGMTRVMEETIAYLKERTDGVHLSLDLDGLDPSDAPGVGTPVIGGLTYRESHLAMEMLAEAQIITSAEFVEVNPILDERNKTASVAVALMGSLFGEKLMHHHHHHAQHDEAVDANSLAEAKVLANRELDKYGVSDYYKNLINNAKTVEGVKALIDEILAALP
modifications: 6xHis, ABD fusion; BHA Fusion Protein, Synthesized in the Lab
B2: BCA (SEQ ID NO: 71): BCA arginase; SEQ ID NO: 71 is headed BCA (S161C)-His amino acid sequence (protein)
chain: MKPISIIGVPMDLGQTRRGVDMGPSAMRYAGVIERLERLHYDIEDLGDIPIGKAERLHEQGDSRLRNLKAVAEANEKLAAAVDQVVQRGRFPLVLGGDHSIAIGTLAGVAKHYERLGVIWYDAHGDVNTAETSPSGNIHGMPLAASLGFGHPALTQIGGYCPKIKPEHVVLIGVRSLDEGEKKFIREKGIKIYTMHEVDRLGMTRVMEETIAYLKERTDGVHLSLDLDGLDPSDAPGVGTPVIGGLTYRESHLAMEMLAEAQIITSAEFVEVNPILDERNKTASVAVALMGSLFGEKLM
modifications: His tag; BCA (S161C) Arginase, Synthesized in the Lab
B3: BCA (S161C)-His: engineered Bacillus caldovelox arginase with serine-to-cysteine mutation and C-terminal histidine tag (protein)
chain: MKPISIIGVPMDLGQTRRGVDMGPSAMRYAGVIERLERLHYDIEDLGDIPIGKAERLHEQGDSRLRNLKAVAEANEKLAAAVDQVVQRGRFPLVLGGDHSIAIGTLAGVAKHYERLGVIWYDAHGDVNTAETSPSGNIHGMPLAASLGFGHPALTQIGGYCPKIKPEHVVLIGVRSLDEGEKKFIREKGIKIYTMHEVDRLGMTRVMEETIAYLKERTDGVHLSLDLDGLDPSDAPGVGTPVIGGLTYRESHLAMEMLAEAQIITSAEFVEVNPILDERNKTASVAVALMGSLFGEKLMHHHHHH
modifications: His tag; BCA (S161C) - His, Synthesized in Lab

What was measured:
[1] = test system: MKN45 gastric cancer cell line; assay: MTT viability of gastric cancer cells with BHA; format: cell-based; conditions: 72 h, dose-dependent manner
Method: The growth of MKN45 was inhibited in a dose-dependent manner. The viability was determined by MTT endpoint colorimetric assay. Data expressed as mean±SD,n=3.
The in vitro efficacy of the albumin-binding arginase BHA (SEQ ID NO: 75) was tested by incubating the MKN45 gastric cancer cell line with various concentrations of BHA (SEQ ID NO: 75) for 72 h and determining the viability of MKN45 by MTT assay. […] This further confirmed the cytotoxicity of the arginine-depleting fusion protein in culture condition where the medium was supplemented with fetal bovine serum (FBS) and, including albumin as well as other different proteins.

[2] = Arginase specific activity, DAMO colorimetric assay; format: biochemical; conditions: for Specific activity: DAMO assay, 37° C., pH 7.4, purified preparation
Text: The arginase activity of the fusion proteins described herein can be substantially the same, lower, or higher than the activity of the arginase polypeptide from which it is derived. One unit of arginase activity is defined as the amount of fusion protein [e.g., BHA (SEQ ID NO; 75), BAH (SEQ ID NO: 76), N-ABD-rhArg (SEQ ID NO: 49), or N-ABD094-rhArg (SEQ ID NO: 50)] or arginase [e.g., BCA (SEQ ID NO: 70)] that catalyzes the production of 1 μmol of urea per min under standard assay conditions. The specific activity of the enzyme is expressed as activity units per mg of protein. Under standard diacetylmonoxime (DAMO) assay conditions (37° C., pH 7.4), the fusion proteins can have a specific activity that is about 5%, about 10%, about 15%, about 20%, about 25% about 30%, about 35% or about 40% lower or higher than the corresponding arginase polypeptide which it incorporates. In certain embodiments, fusion proteins can have a specific activity that is about 5% to about 40%, about 10% to about 40%, about 10% to about 35%, about 10% to about 30%, about 20% to about 30%, about 20% to about 35%, about 15% to about 30%, about 15% to about 25%, or about 10% to about 20% lower or higher than the corresponding arginase polypeptide which it incorporates.
One unit of enzyme activity is defined as the amount of enzyme (BCA, BHA or BAH) that catalyzes the production of 1 μmol urea per min under standard assay conditions. Specific activity of the enzyme is expressed as activity units per mg of protein.
Briefly, a serial dilution of 0.3 mL BCA solutions together with 0.15 mL water and 720 mM arginine substrate at pH 7.4 was pre-incubated separately at 37° C. for 10 min. The enzymatic reaction was carried out by adding 0.3 mL arginine substrate to the pre-incubated enzyme solutions. The reaction mixture was incubated at 37° C. for exactly 5 minutes and quenching reagent [50% trichloroacetic acid (TCA)] was added to stop the reaction. The sample blanks were prepared in a similar way but the same volume of enzyme solutions was added after TCA solution.
The urea formed from the above reaction was quantified using the DAMO direct colorimetric method described by World Health Organization (WHO). This protocol has been adopted by WHO as the Standard Operating Procedures (SOP) for measuring the blood urea concentration. Several reagents were prepared regarding the SOP, mixed acid reagent was prepared by slowly adding 100 mL concentrated sulfuric acid to 400 mL distilled water followed by 0.3 mL stock acid reagent (0.5 g ferric chloride hexahydrate in 15 mL of distilled water and make up to 25 mL by concentrated phosphoric acid). […] The absorbance at 540 nm was measured. […]

plasma arginine = conditions: 250 U per mouse; for period of undetectable plasma arginine: i.v. or i.p., detection limit 3 μM
Method: FIG. 9 illustrates the pharmacodynamics of BCA (S161C)-His (SEQ ID NO: 89) and the BHA fusion protein (SEQ ID NO: 75) on plasma arginine in mice. Each BALB/c mouse was administered via intravenous injection (i.v.) or intraperitoneal injection (i.p.) with 250 U BCA (S161C)-His (SEQ ID NO: 89) or BHA fusion protein (SEQ ID NO: 75). Plasma was collected at the indicated time points after injection. Time 0 refers to the plasma sample collected prior to the injection. The amount of arginine in each sample is determined by the Biochrom 30 Amino Acid Analyzer. Arginine concentrations below the detection limit (3 μM) are regarded as 0 μM in these plots. Each point represents mean±SD of three mice.
Six BALB/c mice of 8 weeks old were used for the in vivo study of BHA (SEQ ID NO: 75). Prior to the injection of BHA (SEQ ID NO: 75), blood sample was taken from each mouse and used as control (0 h). The mice were randomly divided into two groups for intraperitoneal (i.p.) and intravenous (i.v.) injection, respectively. BHA (SEQ ID NO: 75) (250 U) was injected to each mouse, and blood samples were taken at 6, 24, 72, and 120 h after injection. The plasma of each blood sample at 16 μL was analyzed by an amino acid analyzer (Biochrom) for arginine and ornithine content.

[3] = molecular target: human serum albumin (HSA) (Homo sapiens, UniProt P02768); assay: Binding to HSA on non-denaturing PAGE; conditions: fixed HSA titrated at various molar ratios
Method: When ABD is fused to rhArg or BCA, it is important for the fusion protein to retain both the albumin binding capacity and the enzymatic activity. […] The reaction mixtures were analyzed in their native condition on non-denaturing PAGE where the proteins were separated by size and conformation.
In FIG. 7, the mobility of each of HSA and N-ABD-rhArg (SEQ ID NO: 49) alone are shown in Lanes 2 and 3 of the non-denaturing PAGE, respectively (FIG. 7). A fixed amount of HSA (30 pmoles) was titrated against N-ABD-rhArg (SEQ ID NO: 49) at various molar ratios and the results are illustrated in Lanes 5-9. […] In FIG. 8, the mobility of each of HSA and BHA (SEQ ID NO: 75) alone are shown in Lanes 6 and 7 of the non-denaturing PAGE, respectively (FIG. 8). A fixed amount of HSA (60 pmoles) was titrated against BHA (SEQ ID NO: 75) at various molar ratios and the results are illustrated in Lanes 1-5.

[4] = test system: HCT116 human colon cancer cells; assay: Apoptosis by annexin V-FITC and PI flow cytometry; format: cell-based; conditions: 50 μg/mL
Method: To evaluate the induction of apoptosis by the BCA arginase (SEQ ID NO: 71), 3×10^5 cells were seeded in 6-well plate one day prior to different treatment conditions. The medium was withdrawn and replenished with complete medium supplemented with different concentrations of BCA (SEQ ID NO: 71). After exposed to BCA for 24 h, 48 h and 72 h, both floating cells and adherent cells were collected. Briefly, the floating cells in culture medium were collected by centrifugation at 100×g for 3 min at room temperature while the adherent cells were washed with PBS and lifted by incubating with 0.25% trypsin solution for 3 min at 37° C. After addition of complete medium, the cells were collected by centrifugation. The cells were washed with PBS and resuspended in 0.1 mL binding buffer (0.01 M HEPES, pH 7.4; 0.14 M NaCl; 2.5 mM CaCl2) containing propidium iodide (PI) and annexin V-FITC. The cells were stained in dark at room temperature for 15 min and 0.4 mL of binding buffer was added to each tube prior to flow cytometry analysis using FACSAria (BD biosciences). The cytometer was set to acquire the data from 10,000 cells for each sample and the data were analyzed by the FACSAria software.

Molecule | growth of MKN45 cancer cells [1] | specific activities of BHA alone and the BHA-HSA complexes ([2]; BHA:HSA mole ratio 1:10, 1:5, 1:1, 5:1 and 10:1) | Specific activity [2] | effect of HSA on arginine catabolic activity ([2]; various amounts of HSA added) | tolerance, side effects (plasma arginine) | period of undetectable plasma arginine (plasma arginine) | binding to HSA (free HSA reduced in a proportional manner) [3] | HCT116 cells undergone apoptosis ([4]; 24 h) [%] | HCT116 cells undergone apoptosis ([4]; 48 h) [%] | HCT116 cells undergone apoptosis ([4]; 72 h) [%] | time for plasma arginine to return to normal (plasma arginine) [h]
B1 | inhibited | approximately 200 U/mg | 220.6±15.8 U/mg | not affected | no obvious side effects | at least 24 hours | specific binding |  |  |  | 
B2 |  |  |  |  |  |  |  | ~16 | 21 | 25 | 
B3 |  |  | 243.30 U/mg and 264 U/mg |  |  | 8 h |  |  |  |  | ≤ 24
